From PubChem BioAssay AID1508642 (National Center for Advancing Translational Sciences (NCATS), 2021)
The campaign covered roughly 43,000 compounds. About 200 (0.47%) were called active. Another 12% or so got no clear call; they are omitted. Calls come from the whole dose curve; as a rule, active = well fitted cell-killing curve with a large enough effect; inconclusive = small, poorly fitted or top-dose-only effect, or effect the other way; inactive = flat fitted curve, though single readings scatter. The list shows a part of the results.

Test: Cell viability qHTS assay in S16 Pmp22-F2sN cells; note: nearly all actives have a fitted effect of over 65% in size
Details: S16 Pmp22-F2sN Schwann cells (luciferase reporters placed in the Pmp22 gene) viability, CellTiter-Glo, 24 h; series mostly up to 57.5 µM; activity change, negative = cytotoxicity: at the top concentration
Method in brief: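 CellTiter-Glo counter-screen, qHTS, 1536-well. Cells: S16(c9) Pmp22-F2sN, 500-1,000/well in DMEM + 10% FBS. Cpd 23 nL pin transfer, 24 h, 37C/5% CO2. Read: luminescence, CCD imager.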
% is set by controls: 0 for no effect and ±100 for the full control effect.

Structure (SMILES) | activity change, negative = cytotoxicity
CCn1nc(C)c2c(-c3ccccc3)cc(=O)n(C(C)C(=O)NCCc3ccccc3)c21 (stereo unspecified) | inactive: 10.9%
CCc1nn2c(=O)cc(COC(=O)c3ccccc3NC(=O)c3cccs3)nc2s1 | inactive: 11.9%
Cc1cc(=O)oc2c3c(ccc12)OCN(Cc1ccc(Cl)cc1)C3 | inactive: -0.145%
CCC1CCCCN1C(=O)Cn1c(=O)n(CCCCCC(=O)NCc2ccccc2Cl)c(=O)c2sccc21 (stereo unspecified) | inactive: 0.434%
Fc1ccccc1Nc1ncnc2c1nc1n2CCCCC1 | inactive: 23.8%
O=C(NCCc1ccc(Cl)cc1)c1ccc2c(c1)N(Cc1cccc(Cl)c1)C(=O)c1ccccc1S2(=O)=O | inactive: -19.1%
Cc1cccc(CCNC(=O)c2c[nH]c3ccc(S(=O)(=O)Nc4ccccc4F)cc3c2=O)c1 | inactive: -1.13%
CCC(=O)N1CCc2cc(Br)cc(S(=O)(=O)NCc3ccccc3)c21 | inactive: 8.26%
O=C(CCCCCn1c(=O)[nH]c2ccccc2c1=O)NCc1ccc(Cl)cc1 | inactive: -0.946%
COc1cc(NC(=O)CCNC(=O)Cn2cnc3ccccc3c2=O)cc(OC)c1OC | inactive: -2.26%
COc1ccc(CCn2c(=O)c3cccnc3n(CC(=O)Nc3c(C)cc(C)cc3C)c2=O)cc1OC | inactive: 4.72%
Cc1cc(C)c(NC(=O)Nc2csc3c2CCCC3)c(C)c1 | inactive: 3.32%
CCN(CC)C(=O)COc1ccc(-c2nnc(Nc3ccc(OC)c(C(=O)NC)c3)c3ccccc23)cc1 | inactive: -0.897%
Cc1sc2ncn(CC(=O)N(C)c3cccc(C(F)(F)F)c3)c(=O)c2c1S(=O)(=O)N1CCN(c2ncccn2)CC1 | inactive: 5.98%
Fc1ccc(-n2ncc3c(N4CCN(c5ccccc5F)CC4)ncnc32)cc1 | inactive: 0.888%
CSc1ccc(CCNC(=O)C2CCN(c3ncnc4c3nc3n4CCCCC3)CC2)cc1 | inactive: 14.7%
Cc1ccc(C2c3[nH]c4ccccc4c3CCN2C(=O)CCc2ccccc2)cc1 (stereo unspecified) | inactive: -4.46%
CCOc1ccc(CCNC(=O)C2CCN(Cc3nc(-c4ccccc4C)oc3C)CC2)cc1OCC | inactive: 8.91%
O=C(CC(NCc1cccnc1)C(=O)O)Nc1ccc(O)cc1 (stereo unspecified) | inactive: -0.333%
Fc1ccc(Nc2c(-c3ccco3)nc3ccccn23)cc1 | inactive: -8.81%
Cn1c(=O)c(=O)n(C)c2cc(S(=O)(=O)Nc3ccc(Cl)c(C(F)(F)F)c3)ccc21 | inactive: 10.4%
COc1cc(OC)c(NC(=O)Cn2cnc3nc4c(cc3c2=O)CCCC4)cc1Cl | inactive: -1.7%
Cc1cc(=O)oc2cc(OCC(=O)Nc3c(C(C)C)cccc3C(C)C)ccc12 | inactive: -2.22%
Clc1ccc(-c2nnn3c2nc(NCc2ccc4c(c2)OCO4)c2ccccc23)cc1 | inactive: 9.08%

Structure (SMILES) | activity change, negative = cytotoxicity
CC(C)(C)c1ccc(C(=O)N2CCN(Cc3cc(=O)n4nc(-c5ccccc5F)sc4n3)CC2)cc1 | inactive: 12.4%
Cc1ccc(NC(=O)C2CCC(CNS(=O)(=O)c3ccc4c(c3)C(C)(C)C(=O)N4C)CC2)cc1 (stereo unspecified) | inactive: 19.6%
CCCCNC(=O)CC1N=C2c3ccccc3N=C(SCC(=O)NCc3ccccc3Cl)N2C1=O (stereo unspecified) | inactive: 4.61%
COc1cccc(C(=O)Nc2cccc(OCc3cc(=O)n4cccc(C)c4n3)c2)c1 | inactive: 12.2%
Cc1ccc(NC(=O)CCC(=O)N2CCSc3ccccc32)cc1 | inactive: 0.613%
Cc1cnc2c(c1SCC(=O)NCc1ccccc1Cl)c(=O)n(C)c(=O)n2C | inactive: 6.28%
CC(C)(Oc1ccc(Cl)cc1)C(=O)Nc1nnc2n1CCS2 | inactive: 9.96%
Cc1ccn2c(Nc3ccccc3C)c(-c3cccnc3)nc2c1 | inactive: -25.5%
Clc1ccc(-c2noc(-c3cccnc3N3CCN(c4ccccc4)CC3)n2)cc1 | inactive: 7.85%
O=C(COc1ccccc1)Nc1nnc(SCc2cc(=O)c3ccccc3[nH]2)s1 | inactive: 0.855%
CCOc1ccc(NC(=O)Cn2cc(C(=O)c3ccccc3)c(=O)c3cc4c(cc32)OCCO4)cc1 | inactive: 11.3%
Cc1ccc(C)c(N2CCN(C(=O)c3nn(C)c4c3CS(=O)(=O)c3ccccc3-4)CC2)c1 | inactive: -12.2%
Nc1ccc(S(=O)(=O)NC2(C(F)(F)F)NC(=O)N(c3cccc(Cl)c3)C2=O)cc1 (stereo unspecified) | inactive: 7.45%
O=c1c2ccccc2nc(N2CCN(c3cccc(Cl)c3)CC2)n1-c1ccccc1 | inactive: -6.87%
O=C(Nc1ccccc1C(F)(F)F)N1CCC2(CC1)Oc1ccccc1C(=O)N2Cc1ccccc1F | inactive: -0.0363%
CCCCOc1ccc(C(=O)Nc2nc3c(s2)CC(C)CC3)cc1 (stereo unspecified) | inactive: 8.49%
COCCNC(=O)c1ccc2c(c1)N(Cc1c(F)cccc1Cl)C(=O)c1ccccc1S2 | inactive: 14.3%
CCOC(=O)c1c(C)oc2nc(C)nc(NCc3ccc(OC)cc3)c12 | inactive: 4.36%
COC(=O)c1cccc(CN2C(=O)SC(Nc3ccc(Cl)cc3)C2=O)c1 (stereo unspecified) | inactive: -16%
CCOC(=O)c1noc2ncnc(Nc3cccc(C(F)(F)F)c3)c12 | inactive: -13.2%
COc1ccccc1N1CCN(S(=O)(=O)c2c(C)sc3ncn(CC(=O)NCCN(C)C)c(=O)c23)CC1 | inactive: 0.802%
COc1ccc(OC)c(NC(=O)CSC2=Nc3ccccc3C3=NC(CCC(=O)NCCc4ccccc4)C(=O)N23)c1 (stereo unspecified) | inactive: 6.97%
O=C(NCCC1=CCCCC1)c1ccc2c(c1)N(Cc1ccc(Cl)cc1)C(=O)c1ccccc1S2(=O)=O | inactive: -0.462%
CCc1ccc(N2C(=O)N(CC(=O)C(C)(C)C)c3ccccc3S2(=O)=O)cc1 | inactive: 6.49%

Structure (SMILES) | activity change, negative = cytotoxicity
Cc1nnc(NCc2ccc(F)cc2)c2c1nnn2Cc1ccccc1Cl | inactive: 10.5%
CCOc1ccc(NC(=O)CCn2nc(C)c(S(=O)(=O)N3CCCCC3)c2C)cc1 | inactive: -16%
Cc1c(Cl)cccc1NC(=O)Cn1cnc(S(=O)(=O)N2CCCC2)c1 | inactive: 1.53%
COc1ccc(CCNC(=O)Cn2nc(C)c3c(C)n(-c4ccc(C)cc4)nc3c2=O)c(OC)c1 | inactive: 3.82%
COc1ccc(NC(=O)c2oc3ccccc3c2NC(=O)COc2ccc(F)cc2)c(OC)c1 | inactive: 17.6%
CCCNc1nc2c(c(=O)n(C)c(=O)n2C)n1CC(O)COc1ccccc1 (stereo unspecified) | inactive: -0.676%
Cc1ccc(NC(=O)Cn2cc(C(=O)C3CCCCC3)c3ccccc32)c(C)c1 | inactive: -26.7%
Cc1cccc(C(=O)Nc2nnc(S(=O)(=O)N3CCCc4ccccc43)s2)c1 | inactive: -1.91%
Cn1c(=O)n(C)c2cc(NS(=O)(=O)c3ccc(C(C)(C)C)cc3)c(NCc3ccccc3)cc21 | inactive: -5.91%
CCOc1ccc(NC(=O)CCNS(=O)(=O)c2cccc3nsnc23)cc1 | inactive: 21.5%
CCc1cccc(C)c1NC(=O)C(CC)Sc1nncn2c1cc1occc12 (stereo unspecified) | inactive: -14.1%
CCC(=O)Nc1cc(-c2nc3ccccc3s2)c(Cl)cc1Cl | inactive: -4.2%
Cc1ccc(Nc2nc(C)c(NC(=O)c3ccc(C)cc3)c(Nc3ccc(C)cc3)n2)cc1 | inactive: 1.24%
CCOc1ccc(C(=O)Nc2ccc3oc(-c4ccncc4)nc3c2)cc1 | inactive: 2.6%
CCS(=O)(=O)N1CCc2cc(C(=O)Nc3cc(OC)c(Cl)cc3OC)ccc21 | inactive: 1.62%
O=C(Cn1ccc2cc(S(=O)(=O)N3CCCC3)ccc21)NCc1ccccc1Cl | inactive: 5.29%
Cc1ccc(-c2nnc(Nc3cccc(Br)c3)c3ccccc23)cc1S(=O)(=O)NCC1CCCO1 (stereo unspecified) | inactive: -27.2%
O=C(c1ccc2c(c1)N(Cc1ccc(Cl)cc1)C(=O)c1ccccc1S2(=O)=O)N1CCc2ccccc21 | inactive: 0.373%
Cc1ccc(NC(=O)CCCn2nc(C)c3sc4ccccc4c3c2=O)c(Cl)c1 | inactive: 7.44%
COC(=O)c1ccccc1NC(=O)CSc1nnc2cc(C)c3cc(C)cc(C)c3n12 | inactive: 1.21%
CCC(C(=O)Nc1cccc(C#N)c1)n1nc(-c2ccccc2)ccc1=O (stereo unspecified) | inactive: -22%
O=C(NCc1ccc(F)cc1)C(=O)NCC(c1ccco1)S(=O)(=O)c1cccs1 (stereo unspecified) | inactive: -16%
CCOC(=O)N1CCc2c(sc3c2c(=O)n(-c2ccc(F)cc2)c(=O)n3CC(=O)c2ccccc2)C1 | inactive: -0.267%
Cc1cccc(CN2C(=O)c3ccccc3Sc3ccc(C(=O)NCc4cccs4)cc32)c1 | inactive: 2.22%

Structure (SMILES) | activity change, negative = cytotoxicity
O=C(NCCc1ccccc1)C1COc2ccccc2C1 (stereo unspecified) | inactive: -15.4%
Cc1cc(=O)n(CC(=O)NC(C)c2ccccc2)c2c1c(C)nn2C (stereo unspecified) | inactive: -27.3%
CCOC(=O)c1c(NC(=O)c2cc3ccccc3c(=O)o2)sc2c1CCC(C(C)(C)C)C2 (stereo unspecified) | inactive: -3.02%
CCc1ccc(NC(=O)c2cc(C)nn2-c2ccccc2)cc1 | inactive: -1.93%
O=C(NCc1ccccc1Cl)C1CCN(c2ncnc3c2nc2n3CCCCC2)CC1 | inactive: 0.115%
COc1ccc(-c2csc(-c3c(N)c(C(=O)c4ccccc4)n4ccccc34)n2)cc1 | inactive: 5.48%
Cc1cc(C)n2c(Nc3cccc(C(F)(F)F)c3)c(-c3ccsc3)nc2n1 | inactive: -9.72%
Cc1nnc(NC(=O)CSCc2cc(=O)c3ccc(C)c(C)c3[nH]2)s1 | inactive: 1.03%
CCn1cc2nc(SCc3cccc(F)c3)n(CCc3ccccc3)c(=O)c2n1 | inactive: -16.2%
CCC(Cc1ccccc1)NC(=O)Cn1ncc2c3ccccc3n(Cc3ccc(F)cc3)c2c1=O (stereo unspecified) | inactive: -16.3%
O=C(O)CCn1ccc2cc(S(=O)(=O)N3CCCCC3)ccc21 | inactive: -22%
CCC(=O)N1c2ccccc2CC1C(=O)NCCc1ccc(Cl)cc1 (stereo unspecified) | inactive: 13.3%
O=C(CN1CCN(c2ccc(Cl)cc2)CC1)Nc1ccc(F)c(F)c1 | inactive: 5.92%
O=C(Cn1nnnc1-c1ccccc1F)Nc1ccc(F)c(F)c1 | inactive: 1.57%
Cc1cc(C)cc(-n2ccnc2SCC(=O)Nc2ccc(C)c(Cl)c2)c1 | inactive: 12.9%
CCOc1ccccc1NC(=O)c1nnn(CC(=O)Nc2ccccc2CC)c1N | inactive: 5.95%
COc1ccc(NC(=O)c2[nH]nc3c2CSc2ccccc2-3)c(OC)c1 | inactive: 2.25%
CC(C)c1ccc(S(=O)(=O)c2cnc(SCC(=O)Nc3ccc(F)cc3F)nc2N)cc1 | inactive: 25.3%
Cc1ccc(-n2nc3c(N4CCC(C(=O)NCCC(C)C)CC4)nnc(C)c3c2C)cc1 | inactive: -27%
Cc1ccc2oc(=O)c3cc(C(=O)Nc4cccc(C#N)c4)sc3c2c1 | inactive: -3.8%
COCc1cc(C)n(CC(=O)Nc2cccc(C(C)=O)c2)c(=O)c1C#N | inactive: -2.01%
Cc1ccc(-c2nc3cc(NC(=O)c4cc(Br)ccc4Cl)ccc3o2)cc1 | inactive: 0.538%
CCOc1ccccc1C(=O)N1CCCCC1CCN1CCOCC1 (stereo unspecified) | inactive: 16.6%
CCCOc1cccc(C2c3c(oc4cc(C)c(C)cc4c3=O)C(=O)N2CCCN2CCOCC2)c1 (stereo unspecified) | inactive: 16.8%
